The results in this text go back to the supplement of paper PMC7826260.

Test in all cases: uncleaved DNA left, log2 of reads against the no-enzyme library (log2 ratio); higher = less cleavage (more negative = more Rep cleavage of the k-mer); sequences stand for … in CTCGTCCG…ACCGGAGA
For assay [1], the system named is T1, Rep nickase domain of Muscovy duck circovirus.
T1 sequence (residues 1-111, tag not shown): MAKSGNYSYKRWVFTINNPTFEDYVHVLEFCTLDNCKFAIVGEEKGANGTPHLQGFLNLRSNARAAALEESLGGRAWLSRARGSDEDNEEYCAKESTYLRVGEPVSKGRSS
As for the experimental part: (§1)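 A pool of 90-nt single-stranded DNAs with seven random bases just before the constant AC of the nick site (name = the seven bases) was cut by 3 µM recombinant His6-SUMO-tagged Rep nickase domain (300 nM DNA, 50 mM HEPES pH 8.0, 50 mM NaCl, 1 mM MnCl2, 1 h, 37 °C, three replicates). Uncut DNA was amplified and sequenced.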

For assay [2], the system named is T2, Rep nickase domain of banana bunchy top virus.
T2 sequence (residues 1-94, tag not shown): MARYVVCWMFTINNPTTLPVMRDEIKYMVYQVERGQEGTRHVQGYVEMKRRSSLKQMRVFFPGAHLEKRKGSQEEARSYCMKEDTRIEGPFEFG
The procedure:
as §1

The test system of assay [3] is T3, Rep nickase domain of cabbage leaf curl virus.
T3 sequence (residues 1-116, tag not shown): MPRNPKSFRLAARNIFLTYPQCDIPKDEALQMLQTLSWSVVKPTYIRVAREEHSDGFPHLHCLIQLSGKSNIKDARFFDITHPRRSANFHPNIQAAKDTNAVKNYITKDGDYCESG
As for the experimental part: as §1
Assay [4] deals with T4, Rep nickase domain of chickpea chlorotic dwarf virus.
T4 sequence (residues 1-124, tag not shown): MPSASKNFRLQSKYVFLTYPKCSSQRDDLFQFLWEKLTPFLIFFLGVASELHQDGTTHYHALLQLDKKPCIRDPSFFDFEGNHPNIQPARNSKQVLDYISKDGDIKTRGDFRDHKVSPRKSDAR
The procedure: as §1
The subject of assay [5] is T5, Rep nickase domain of faba bean necrotic yellows virus.
T5 sequence (residues 1-98, tag not shown): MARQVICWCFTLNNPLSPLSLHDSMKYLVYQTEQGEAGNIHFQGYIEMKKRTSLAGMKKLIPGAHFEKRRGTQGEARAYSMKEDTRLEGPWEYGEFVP
The procedure: as §1
Assay [6] has as its system T6, Rep nickase domain of maize striate mosaic virus.
T6 sequence (residues 1-117, tag not shown): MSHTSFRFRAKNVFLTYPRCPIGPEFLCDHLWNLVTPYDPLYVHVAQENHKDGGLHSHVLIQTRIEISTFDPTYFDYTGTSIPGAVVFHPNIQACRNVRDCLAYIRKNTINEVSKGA
As for the experimental part: as §1
Assay [7] deals with T7, Rep nickase domain of porcine circovirus 2.
T7 sequence (residues 2-116, tag not shown): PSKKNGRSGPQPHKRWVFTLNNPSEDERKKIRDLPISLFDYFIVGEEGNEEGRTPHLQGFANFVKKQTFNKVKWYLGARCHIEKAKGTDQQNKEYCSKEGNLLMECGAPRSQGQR
The procedure: as §1
For assay [8], the system named is T8, Rep nickase domain of tomato golden mosaic virus.
T8 sequence (residues 1-124, tag not shown): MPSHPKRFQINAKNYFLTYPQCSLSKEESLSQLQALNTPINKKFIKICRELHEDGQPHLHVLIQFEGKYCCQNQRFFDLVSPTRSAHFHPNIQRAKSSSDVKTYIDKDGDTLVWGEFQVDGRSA
As for the experimental part: as §1
Assay [9] has as its system T9, Rep nickase domain of tomato yellow leaf curl virus.
T9 sequence (residues 1-136, tag not shown): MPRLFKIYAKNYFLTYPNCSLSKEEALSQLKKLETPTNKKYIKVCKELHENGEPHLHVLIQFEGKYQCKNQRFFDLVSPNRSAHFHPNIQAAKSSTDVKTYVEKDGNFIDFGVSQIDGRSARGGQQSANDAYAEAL
The procedure:
as §1

In assay [10] the test system is T10, Rep nickase domain of wheat dwarf virus.
T10 sequence (residues 1-137, tag not shown): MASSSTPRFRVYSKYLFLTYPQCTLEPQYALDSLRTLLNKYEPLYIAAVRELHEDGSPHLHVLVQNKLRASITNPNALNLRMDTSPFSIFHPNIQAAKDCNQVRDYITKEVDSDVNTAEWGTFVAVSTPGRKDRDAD
The procedure: as §1

The other results are listed elsewhere or left out. Viral Rep nickase domains cut single-stranded DNA in vitro (3 µM enzyme, 1 h, 37 °C); shown is the middle of each 90-letter strand. The score is log2 (uncut reads / reads without enzyme); the lower, the more was cut; hits are not called. Reads are scaled to the total, so uncut sequences can rise above 0 when many others are cut.

For the sequence TGTATCG, the “uncleaved DNA left (log2)” value was -0.0527 in assay [1]; -0.113 in [2]; -0.932 in [3]; -0.335 in assay [4]; -0.0572 in assay [5]; -1.29 in assay [6]. For the same sequence, the “uncleaved DNA left (log2)” value in assay [7] is 0.0687; in [8] it was -0.17; in [9], -0.0753; in [10], -0.295.

Consider GGACTAA, for which the “uncleaved DNA left (log2)” value in [1] is 0.00258; in [2], -0.103; in assay [3], 0.848; in assay [4], 1.82; in assay [5], -0.0579; in assay [6], 2.1. Also, the “uncleaved DNA left (log2)” value in [7] was 0.0157; in assay [8] it was -0.00534; in assay [9], 0.0365; in [10], -0.0122.

Regarding AATCAGA, the “uncleaved DNA left (log2)” value is 0.0866 in assay [1]; 0.138 in assay [2]; -0.177 in assay [3]; -0.374 in [4]; 0.108 in assay [5]; -0.953 in [6]. Further, the “uncleaved DNA left (log2)” value in assay [7] was 0.15; in [8], 0.197; in assay [9], 0.143; in assay [10], 0.0451.

Regarding TAGAACT, the “uncleaved DNA left (log2)” value in assay [1] is 0.06; in assay [2] it was -1.74; in [3] it was -1.34; in [4], -2.92; in assay [5], -0.794; in assay [6], 0.113. Further, the “uncleaved DNA left (log2)” value was -3.5 in assay [7], -0.0074 in assay [8], 0.157 in assay [9] and -0.0345 in assay [10].

For GAAACTC, the “uncleaved DNA left (log2)” value in [1] was 0.084; in [2], 0.149; in assay [3], 0.131; in assay [4] it was -0.0642; in assay [5], 0.0425; in assay [6] it was 0.738. Further, the “uncleaved DNA left (log2)” value is 0.0217 in assay [7], 0.0762 in assay [8], 0.131 in assay [9] and 0.0851 in assay [10].

Consider GGTTCTT, for which the “uncleaved DNA left (log2)” value in [1] was -0.361; in [2], 0.0451; in assay [3] it was 0.469; in assay [4] it was 0.901; in assay [5], 0.108; in [6], 1.88. In addition, the “uncleaved DNA left (log2)” value was -1.28 in assay [7], 0.045 in assay [8], 0.153 in [9] and 0.13 in [10].

As for AGTGATT, the “uncleaved DNA left (log2)” value in assay [1] was 0.000558; in assay [2], -0.108; in assay [3], 0.0778; in assay [4], 0.403; in assay [5], 0.123; in assay [6] it was 1.48. Moreover, the “uncleaved DNA left (log2)” value was -2.79 in assay [7], 0.16 in assay [8], 0.000941 in assay [9] and 0.102 in assay [10].

With AGAGCTA, the “uncleaved DNA left (log2)” value in [1] was 0.113; in assay [2], 0.0145; in assay [3], 0.0254; in assay [4], 0.168; in assay [5], 0.035; in [6], 0.712. Moreover, the “uncleaved DNA left (log2)” value in [7] was -0.42; in assay [8] it was 0.169; in [9], 0.0234; in [10] it was 0.0419.

Consider TCTGAGC, for which the “uncleaved DNA left (log2)” value is 0.113 in assay [1]; -0.0548 in assay [2]; -0.101 in assay [3]; -0.0699 in [4]; 0.106 in [5]; -0.481 in assay [6]. In addition, the “uncleaved DNA left (log2)” value in [7] was -0.02; in assay [8], 0.00123; in assay [9], -0.0667; in [10], 0.0782.

Consider CCCGTAA, for which the “uncleaved DNA left (log2)” value is 0.041 in assay [1]; 0.0779 in [2]; -0.00187 in assay [3]; -0.214 in [4]; 0.0459 in [5]; -0.485 in [6]. In addition, the “uncleaved DNA left (log2)” value is 0.0501 in assay [7], 0.108 in assay [8], 0.13 in assay [9] and -0.0754 in assay [10].

Regarding AATTCAT, the “uncleaved DNA left (log2)” value is -3.33 in assay [1]; -1.93 in assay [2]; -0.00221 in assay [3]; -1.4 in assay [4]; 0.0808 in assay [5]; -0.422 in assay [6]. Besides, the “uncleaved DNA left (log2)” value was -3.62 in assay [7], 0.0143 in assay [8], 0.175 in assay [9] and 0.165 in assay [10].

Consider TGAACAG, for which the “uncleaved DNA left (log2)” value in assay [1] was -0.00246; in assay [2], 0.0102; in assay [3] it was -0.365; in [4], -0.522; in assay [5], -0.0624; in assay [6], -0.868. Moreover, the “uncleaved DNA left (log2)” value was 0.0439 in [7], -0.00882 in assay [8], -0.0207 in [9] and 0.0337 in assay [10].

As for GCTATCG, the “uncleaved DNA left (log2)” value is 0.133 in assay [1]; -0.00654 in [2]; -0.675 in assay [3]; -0.251 in [4]; 0.0804 in assay [5]; -0.939 in [6]. The “uncleaved DNA left (log2)” value in assay [7] was 0.192; in [8] it was -0.0856; in assay [9] it was 0.0296; in assay [10], -0.0863.

As to AATCCCG, the “uncleaved DNA left (log2)” value in assay [1] is -0.0654; in assay [2] it was 0.0086; in [3], -0.766; in assay [4], -0.0862; in [5] it was 0.108; in assay [6], -1.12. For the same sequence, the “uncleaved DNA left (log2)” value in assay [7] is -0.542; in assay [8], -0.0442; in assay [9], 0.0627; in assay [10] it was 0.0626.

In the case of TCAGCTT, the “uncleaved DNA left (log2)” value was -0.114 in [1]; -0.055 in assay [2]; 0.412 in [3]; 0.913 in [4]; -0.149 in assay [5]; 1.41 in [6]. The “uncleaved DNA left (log2)” value was -0.0073 in assay [7], 0.125 in [8], -0.0942 in assay [9] and -0.0274 in assay [10].
